Data taken from the supplement of paper PMC3334620.
The full ranking holds about 33,000 sequences; the median of “E-score (-0.5 to 0.5)” is about -0.032, and the highest 2% start at about 0.36. This is one part of the list.

biological target: T1, Sko1 (UniProt Q02100); assay: PBM E-score (8-mer binding enrichment) (E-score (-0.5 to 0.5)); higher = stronger / more preferred TF binding; most listed sequences are background and not binding sites; conditions: protein concentration: 200 nM; construct: GST-full length
T1 sequence: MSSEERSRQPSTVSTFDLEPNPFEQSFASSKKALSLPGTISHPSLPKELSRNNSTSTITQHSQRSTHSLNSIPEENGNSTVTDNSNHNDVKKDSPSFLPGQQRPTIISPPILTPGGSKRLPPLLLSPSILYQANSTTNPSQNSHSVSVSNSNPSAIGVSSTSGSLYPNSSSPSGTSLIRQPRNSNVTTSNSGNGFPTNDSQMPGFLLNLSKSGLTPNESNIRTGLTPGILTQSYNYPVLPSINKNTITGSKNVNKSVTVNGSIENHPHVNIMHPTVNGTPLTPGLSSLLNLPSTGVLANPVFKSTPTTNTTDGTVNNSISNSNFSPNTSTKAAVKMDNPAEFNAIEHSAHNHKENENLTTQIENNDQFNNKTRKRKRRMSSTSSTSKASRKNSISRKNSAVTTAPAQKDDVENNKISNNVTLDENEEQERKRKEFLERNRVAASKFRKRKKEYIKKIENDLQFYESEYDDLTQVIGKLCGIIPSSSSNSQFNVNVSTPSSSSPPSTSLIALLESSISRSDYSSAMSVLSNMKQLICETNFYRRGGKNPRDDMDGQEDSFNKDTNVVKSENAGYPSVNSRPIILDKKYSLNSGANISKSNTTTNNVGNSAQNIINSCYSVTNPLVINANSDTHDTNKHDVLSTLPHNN
Method in brief: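 Bound GST-tagged yeast transcription factors, applied at about 100-200 nM to double-stranded universal all-10-mer Agilent arrays, were detected with fluorescent anti-GST. Scans were normalised with masliner. A modified Wilcoxon-Mann-Whitney statistic, the E-score, was assigned to each ungapped eight-base word pooled with its reverse complement by the Universal PBM Analysis Suite.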

Row | Sequence | PBM E-score
1 | AATCTTTC | -0.106
2 | GCACCCTA | -0.0839
3 | AATCCGTA | -0.103
4 | AATCACTG | 0.0768
5 | GTATGAAC | 0.149
6 | ATACACTG | 0.0799
7 | ACACTCGG | 0.0335
8 | GCTGGGAC | -0.233
9 | GACATACC | 0.114
10 | AGAAAGCT | 0.0478
11 | GGGACTGA | -0.275
12 | CTGGATGA | 0.015
13 | CCGCTAGA | -0.305
14 | AGAAGGTG | -0.178
15 | AGTAGGAG | -0.306
16 | GGGGTAAA | -0.162
17 | AACAGTCC | -0.273
18 | AGATCGCA | -0.0963
19 | ACGGACCT | -0.204
20 | GGCGGGCA | -0.129
21 | AGGAAGCG | -0.138
22 | AGGCATCA | -0.161
23 | CGAAGAGA | 0.0981
24 | ACGCCCAG | -0.0834
25 | CCGCACCC | 0.0222

Row | Sequence | PBM E-score
26 | CGCCGACC | -0.214
27 | TCAGATAA | 0.208
28 | CTGGGTAC | -0.0841
29 | AGTGGAAC | -0.175
30 | AGGTCACT | -0.0104
31 | ACGGTAGG | -0.189
32 | AGCGAACC | 0.0124
33 | TCCGTAGA | -0.15
34 | TAAACCTA | 0.144
35 | CAGGCTTA | -0.117
36 | AATCATCC | 0.0418
37 | AAACCGTA | -0.0212
38 | ATTCGCTA | 0.0716
39 | GATATAGA | -0.0929
40 | CATACGGC | -0.0208
41 | AGGGCGCC | -0.326
42 | CTCATCAA | 0.0648
43 | ATGATCTA | 0.31
44 | CGATAGCA | -0.0372
45 | CGACCCCA | -0.0158
46 | CTCAACCA | -0.154
47 | ACGGTTGG | -0.0912
48 | ACTAGGCT | -0.173
49 | CACGCACC | 0.115
50 | ACCAGTAC | 0.0273

Row | Sequence | PBM E-score
51 | AGGCTAGA | -0.234
52 | CTGTCTGC | -0.25
53 | CCTTCTAG | -0.127
54 | ACTCTCGA | 0.0797
55 | AGCTAGGG | -0.206
56 | CAGCCCAC | -0.12
57 | GCGGGGCC | -0.373
58 | ACAGTCCG | -0.182
59 | CGTATTAA | 0.362
60 | ACCCTATG | -0.0956
61 | ACTAAGTC | -0.0703
62 | CCCGGCCC | -0.424
63 | TATAAAGA | 0.132
64 | ACTATCGC | 0.0246
65 | AAAGCTGT | -0.0182
66 | GCCAATAA | 0.0824
67 | CTTCTTAC | 0.0329
68 | AATACGAG | 0.244
69 | AATGAACG | 0.205
70 | AACCATCC | -0.217
71 | AACCTACC | -0.193
72 | CAGGCTCC | -0.335
73 | AACAAAAT | 0.199
74 | AGGAGGAC | -0.197
75 | CCGCTCTA | -0.087

Row | Sequence | PBM E-score
76 | CAATGGGG | -0.157
77 | CTGGGGGA | -0.207
78 | CGAACACC | -0.175
79 | CATAGTTC | 0.0165
80 | GCATGGCC | -0.276
81 | TCGTACGA | 0.282
82 | GCCTTCCC | -0.258
83 | AACCACGG | -0.0682
84 | ATATAATC | 0.143
85 | ATTGGGCC | -0.0649
86 | CCCAGCGG | -0.201
87 | CGGCATTA | 0.0285
88 | CGCATTAA | 0.134
89 | AACCTTGG | 0.018
90 | CCTCCTGC | -0.139
91 | CTGGACAA | -0.13
92 | CAACCCAG | -0.271
93 | ACCACCGA | -0.228
94 | CGACAAAA | 0.231
95 | GGTTTTGA | 0.0821
96 | GGTTCAGA | -0.119
97 | AGTGCGAT | -0.0258
98 | TCTGCCCA | -0.129
99 | TCCAGAGA | -0.144
100 | CCGATACC | -0.114

Row | Sequence | PBM E-score
101 | TCAATAAA | 0.123
102 | AGAGGACC | -0.3
103 | CTTTTGGA | -0.0608
104 | CCCTCACA | -0.176
105 | ACCATCTC | -0.122
106 | ATTCAGGA | -0.00648
107 | CCATATGA | 0.139
108 | ATAGAGGC | -0.174
109 | AAAGAACT | -0.0725
110 | GCATGGTA | 0.0146
111 | CTTCACGA | -0.118
112 | AGTATCGC | -0.0842
113 | GTATCGAA | 0.192
114 | CTTTTCGA | 0.103
115 | TATTCGCA | 0.221
116 | CGAACAAA | 0.0899
117 | CCCACCGC | -0.0379
118 | GACCTCAA | 0.0183
119 | CAGCGAAG | -0.283
120 | ATCTCCTG | -0.157
121 | GCGGCGCC | -0.109
122 | CAACCGAG | -0.162
123 | ATTGTTCG | 0.217
124 | GCACGCCA | 0.0396
125 | GCTCGAAA | -0.125

Row | Sequence | PBM E-score
126 | TCTCTAAA | -0.107
127 | GCAGGGTA | -0.0477
128 | TGGACACA | -0.0691
129 | ATGAGGTG | 0.205
130 | AATCCCTG | -0.307
131 | TTTATAAA | 0.214
132 | ACTGGAAC | -0.0269
133 | ACGATAAC | 0.167
134 | ACTACACT | -0.115
135 | ATCGCTCG | -0.146
136 | AAGCCAGT | -0.146
137 | AGTCGATG | -0.0411
138 | AAGACGAG | -0.189
139 | CGATGATC | 0.0811
140 | ATGTCACG | 0.325
141 | AGGGAGGC | -0.0958
142 | ACTCGCGG | -0.132
143 | GAGGCAAA | -0.0527
144 | AGCGTTGA | -0.1
145 | GACGGTGC | -0.0817
146 | GTGGCCAC | 0.127
147 | CGGTTAAA | -0.162
148 | ACTGCATC | 0.127
149 | GAGGTTGA | -0.0232
150 | CCTAGCGA | -0.195

Row | Sequence | PBM E-score
151 | ATTATAAA | 0.116
152 | AAGCCCCG | -0.177
153 | GACTCAGA | -0.205
154 | AATTTGAC | 0.214
155 | CAGACCAC | -0.0177
156 | TACCGAGA | -0.0792
157 | TTGAGCAA | -0.0443
158 | GCAGAGAC | -0.162
159 | GAGTACGC | 0.0719
160 | CTACCTAC | 0.121
161 | CACAGGTA | 0.113
162 | AACTACTT | -0.00602
163 | CAAGCGGG | -0.306
164 | GGGGTCAC | -0.24
165 | AGAGGAGA | -0.235
166 | CAACGAAC | 0.0301
167 | AGAAATTA | 0.271
168 | CTGCCGGC | -0.354
169 | GTGGAACA | 0.0269
170 | GAAACAGA | 0.193
171 | TACCCACA | -0.111
172 | TCTCCCCA | -0.261
